These molecules were tested on hTMEFF1-ECD recombinant deletion mutants (assay: Binding domain determination with hTMEFF1-ECD deletion mutants (Octet)). Settings: full length TMEFF1 ECD vs ΔFS1, ΔFS2, ΔFS1&FS2.
Set-up: species or system human; key: FS1—follistatin domain 1; FS2—follistatin domain 2
Text: TMEFF1 recombinant proteins expressing 3 different deletion mutants, AFS1 (AFollistatin Domain 1), AFS2 (AFollistatin Domain 2) or AFS1&FS2 were used to identify binding domains among different antibodes using an Octet Red instrument with Anti-Penta-His (HIS 1K) biosensors. Expression of the 3 deletion mutants was confirmed by WB analysis. 100 ngs of purified TMEFF1 ECD was run along with unpurified supernatant of transfected CHO cells with the different deletion mutants. HIS 1K biosensors were loaded by submerging the biosensors into wells containing 10 ug/ml of full length TMEFF1 or one of 3 different deletion mutants (AFS1, AFS2 or AFS1&FS2) for 60 seconds. Following the loading step, the biosensors were then dipped for 30 seconds in PBS before immersion for 30 seconds in 200 ul of unpurified recombinant antibodies for 30 seconds. The biosensors were then dipped briefly (30 seconds) in PBS to observe any dissociation. Samples were determined to show binding or no binding by comparing to a control well that contained no recombinant antibody. Differential binding to the deletion mutants allowed for determination of binding sites on TMEFF1 recombinant protein. For cases where the antibody bound all 3 recombinant proteins, the binding is outside of the deleted domains. For the case where binding is observed only on full length TMEFF1 and AFS2, the antibody is binding in the ΔFS1 domain.
26 of the identified antibodies were checked for epitope domain binding by Octet™ using the hTMEFF1-ECD recombinant deletion mutants (see Table 7, below).

Binding region (epitope domain binding) | Molecule
FS1 | 43A12H: human anti-TMEFF1 IgG1 antibody; VH SEQ ID NO: 49, VL SEQ ID NO: 53 (antibody, V domains shown) VH: QVQLVESGGGVVQPGRSLRLSCAASGFTFRSYGMHWVRQAPGKGLEWVAVIWYDGSIKYYADSVKGRFTISRDNSKNTLYVQMNSLRAEDTAVYYCARDRDYFGSGYYSNVRYYYYGMDVWGQGTTVTVSS VL: [letters of about 100 residues omitted]PLTFGGGTKVEIK
FS1 | 6C11: human anti-TMEFF1 IgG1 antibody; VH SEQ ID NO: 56, VL SEQ ID NO: 60 (antibody, V domains shown) VH: QVQLQQSGPGLVKPSQTLSLTCAISGDSVSSNSAAWNWIRQSPSRGLEWLGRTYYRSKWYNDYPVSVKSRITINPDTSKNQVSLQLNPVTPEDTAVYYCTREQGYSSSRYYYYYGMDVWGQGTTVTVSS VL: [letters of about 120 residues omitted]
FS1 | 7F12: human anti-TMEFF1 IgG1 antibody; VH SEQ ID NO: 103, VL SEQ ID NO: 106 (antibody, V domains shown) VH: QVQLVESGGGVVQPGRSLRLSCAASGFTFSIYGMHWVRQAPGKGLEWVAIIWYDGSDKYYADSVKGRFTISRDNSKNTLYLQMNSLRAEDTAVYYCARDPYTTSLDYWGQGTLVTVSS VL: [letters of about 100 residues omitted]
